Reference: PMC6451091
The other results are listed elsewhere or left out. For part of these data: At the low end of the ranking the order means little. For part of these data: Measured with an extract: partners may take part in the binding.

Assays:
Conditions in all cases: 20 mM HEPES pH 7.9, 100 mM NaCl, 1 mM DTT, 0.2 mg/mL BSA, 0.02% Triton X-100, 2% milk, 0.4 mg/mL salmon testes DNA; 1 h; temperature not stated; high values mean tight binding; double strand, one strand shown; sequences stand for … in GCCTAGCAC…GTGCTAGGTCTTGATTCGCTTGACGCTGCTG
[1] = molecular target: PU.1 (IVT) (UniProt P17947); test: protein-binding microarray (PBM)
[2] = molecular target: PU.1 (endogenous, THP-1 nuclear extract) (UniProt P17947); test: nuclear extract protein-binding microarray (nextPBM)
[3] = molecular target: T1, FLI1 (endogenous, THP-1 nuclear extract) (UniProt Q01543); test: as above
T1 sequence: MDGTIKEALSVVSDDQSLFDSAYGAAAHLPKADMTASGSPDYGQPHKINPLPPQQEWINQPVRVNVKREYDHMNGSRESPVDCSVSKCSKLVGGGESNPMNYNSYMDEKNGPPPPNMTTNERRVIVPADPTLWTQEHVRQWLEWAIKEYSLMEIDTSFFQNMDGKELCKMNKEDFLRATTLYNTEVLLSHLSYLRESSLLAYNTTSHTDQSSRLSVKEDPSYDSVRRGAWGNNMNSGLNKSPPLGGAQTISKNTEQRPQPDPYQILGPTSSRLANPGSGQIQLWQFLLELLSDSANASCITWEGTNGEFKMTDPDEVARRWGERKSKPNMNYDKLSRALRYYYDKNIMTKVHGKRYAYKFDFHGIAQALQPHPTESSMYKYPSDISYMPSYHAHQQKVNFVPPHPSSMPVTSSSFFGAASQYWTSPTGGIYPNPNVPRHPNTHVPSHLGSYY

Row | Sequence | binding signal [1] | binding signal [2] | binding signal [3]
1 | CAGAAGAGGAAGTCAGTGGG | 5.66 z-score | 6.31 z-score | 3.11 z-score
2 | TTAAAGGGGAAGTGAACTCT | 6.68 z-score | 6.98 z-score | 3.23 z-score
3 | TTTTAGAGGAACTGAAAAAC | 3.06 z-score | 3.04 z-score | 1.01 z-score
4 | GTTTTGAGGAACTGGATTCT | 4.57 z-score | 4.79 z-score | 1.25 z-score
5 | GAAATGAGGAACTGATTGGG | 6.47 z-score | 6.73 z-score | 2.55 z-score
6 | CCTTTGGGGAAGTGCAAGAT | 3.85 z-score | 4.15 z-score | 1.74 z-score
7 | CCAAGGAGGAAGTAGAGAGA | 5.18 z-score | 5.51 z-score | 2.63 z-score
8 | CGAAAGAGGAAGTGCCTACA | 7.86 z-score | 7.4 z-score | 4.12 z-score
9 | GCTAGGAGGAAGTGACTGCA | 4.61 z-score | 5.14 z-score | 2.51 z-score
10 | GATAAGAGGAAGTCCTATGT | 5.89 z-score | 6.4 z-score | 3.07 z-score
11 | AACAAAAGGAACTGGCTAGA | 0.871 z-score | 1.39 z-score | 0.798 z-score
12 | GCAAAGGGGAAGTGGAGACT | 5.65 z-score | 6.17 z-score | 2.81 z-score
13 | AAAAAGAGGAAATGATTTAC | 6.97 z-score | 6.75 z-score | 3.37 z-score
14 | GAAAGCAGGAAGTCCCATAG | 3.5 z-score | 4.25 z-score | 3.44 z-score
15 | TGAAAGAGGAAGTGCAACAA | 7.1 z-score | 6.92 z-score | 3.79 z-score
16 | AAAAAAAGGAAGTCTGTTTT | 6.43 z-score | 5.85 z-score | 2.55 z-score
17 | ACAAAAAGGAACTGTGCACC | 2.1 z-score | 1.71 z-score | 1.01 z-score
18 | GAACAAAGGAAGTGTTTCTT | 1.78 z-score | 1.56 z-score | 2.33 z-score
19 | TCACAGAGGAAGTGATAGTA | 3.5 z-score | 3.76 z-score | 2.61 z-score

Row | Sequence | binding signal [1] | binding signal [2] | binding signal [3]
20 | GCTAAGAGGAAGTGCTATCT | 5.81 z-score | 6.24 z-score | 3.26 z-score
21 | AAATTGGGGAAGTGAGCCTG | 6.33 z-score | 6.56 z-score | 3.1 z-score
22 | AGAAAGAGGAAATGAATATA | 5.78 z-score | 5.89 z-score | 3.18 z-score
23 | CAAAAAGGGAAGTGGATGTT | 6.49 z-score | 6.6 z-score | 3.25 z-score
24 | CCAAAGAGGAAGTCACAGTC | 6.07 z-score | 6.51 z-score | 2.93 z-score
25 | CAAAAAGCGAAGTGGATGCT | 1.23 z-score | 0.911 z-score | 0.607 z-score
26 | TCAGAGAGGAAGTGTCACAC | 3.83 z-score | 4.02 z-score | 2.47 z-score
27 | GAAAAGAGGAAGTGTAACCA | 8.52 z-score | 7.38 z-score | 4.1 z-score
28 | TATTAGAGGAACTGCCAGTT | 3.09 z-score | 2.62 z-score | 0.996 z-score
29 | TAAAAGAGGAAGTGACCTCA | 7.82 z-score | 7.44 z-score | 4.21 z-score
30 | GGAAAGAGGAACAGAGTAGG | 3.92 z-score | 4.84 z-score | 1.53 z-score
31 | TGAAAGAGGAAGTGCAATCA | 7.72 z-score | 7.13 z-score | 3.94 z-score
32 | GATAAGAGGAAGTCCTCTCT | 6.41 z-score | 6.6 z-score | 3.18 z-score
33 | CAGGAGAGGAAGTGGGATAG | 4.01 z-score | 4.41 z-score | 2.94 z-score
34 | CGAAAGGCGAAGTGCTAAAC | 0.568 z-score | 0.695 z-score | 0.0901 z-score
35 | ATAAAAAGGAACTGTGCCCC | 2.4 z-score | 1.81 z-score | 0.653 z-score
36 | AGAATGAGGAAGTGGAAGCA | 7.55 z-score | 7.27 z-score | 3.8 z-score
37 | AAAAAAAGGAACTGTCTAGA | 4.5 z-score | 4.14 z-score | 1.82 z-score
38 | ATATAGAGGAACTGAAATTC | 3.54 z-score | 3.21 z-score | 1.27 z-score

Row | Sequence | binding signal [1] | binding signal [2] | binding signal [3]
39 | TCTAAAAGGAAGTCAGCTAT | 1.76 z-score | 1.98 z-score | 1.9 z-score
40 | CAGAGGAGGAAGTGGATTGA | 4.61 z-score | 4.95 z-score | 3.01 z-score
41 | AGAAAGAGGAAGTTATGTGC | 8.58 z-score | 7.55 z-score | 4.05 z-score
42 | AATATGAGGAAGTGCTCTAG | 6.67 z-score | 6.7 z-score | 2.92 z-score
43 | ACAAAAAGGAACTGTGCCTC | 1.97 z-score | 1.7 z-score | 0.761 z-score
44 | CTCCAGAGGAAGTGGGGAAT | 2.11 z-score | 2.67 z-score | 2.64 z-score
45 | TTGAAAAGGAAGTGCAACAA | 2.73 z-score | 2.29 z-score | 2.19 z-score
46 | AGAGAGAGGAAGTGCTCAGA | 4.87 z-score | 4.81 z-score | 2.95 z-score
47 | GCTTAGGGGAAGTGGTTCCC | 3.79 z-score | 4.18 z-score | 1.98 z-score
48 | CCGAAGGGGAAGTGGTCAGA | 5.04 z-score | 5.33 z-score | 2.36 z-score
49 | AAATACAGGAAGTCCAACAT | 5.21 z-score | 5.97 z-score | 3.93 z-score
50 | AGAAAGAGGAAGAGAGAGGG | 4.5 z-score | 5.17 z-score | 1.56 z-score
51 | GAAAAGAGGAAATGAGGTAG | 6.07 z-score | 6.31 z-score | 3.4 z-score
52 | CAAATGGGGAACTGATGCGG | 4.64 z-score | 5.17 z-score | 1.11 z-score
53 | CGAAAGGGGAAGTGCTAATC | 7.39 z-score | 7.28 z-score | 4.04 z-score
54 | TTTAAGAGGAAGTGAGATAG | 5.9 z-score | 6.21 z-score | 3.15 z-score
55 | ACAGGAGGGAAGTGGCCTCA | 2.3 z-score | 2.5 z-score | 1.2 z-score
56 | TTACTGAGGAAGTGGAAACC | 3.27 z-score | 3.01 z-score | 2.29 z-score
57 | ACAAAGAGGAAGTCCCATTT | 7.29 z-score | 6.68 z-score | 3.6 z-score
